# Results as given in the antibiotic and cytotoxicity screens of Wong et al. (2023).
# The list shows a part of the results.
# Legend:
# [1] = system: HSkMC (human skeletal muscle cells); assay: cytotoxicity call (relative viability < 0.9); details: 10 µM
# [2] = system: HepG2; assay: cytotoxicity call (relative viability < 0.9); details: 10 µM
# [3] = system: S. aureus RN4220; assay: growth inhibition call (relative growth <= 0.2); details: 50 µM
Compound,cytotoxicity call [1],cytotoxicity call [2],growth inhibition call [3]
O=C(OC(C(F)(F)F)C(F)(F)F)N1CCN(Cc2ccc(C(F)(F)F)cc2N2CCCC2)CC1,inactive,inactive,inactive
CCS(=O)(=O)Nc1ccc2c(c1)C(=O)N(C)C[C@H](OC)[C@@H](C)CN(C(=O)c1ccc3c(c1)OCO3)[C@@H](C)CO2,inactive,inactive,inactive
COc1ccc(S(=O)(=O)Nc2ccc3c(c2)C(=O)N([C@H](C)CO)C[C@H](C)[C@H](CN(C)C(=O)Nc2ccc(C(F)(F)F)cc2)OCCCC[C@@H](C)O3)cc1,inactive,inactive,inactive
Cn1cnc(S(=O)(=O)N2C[C@@H](O)COC[C@H]3O[C@H](CC(=O)NC4CCC4)CC[C@@H]32)c1,inactive,inactive,inactive
COc1ccc(CN(c2ncns2)S(=O)(=O)c2ccc(Oc3c(F)cc(F)cc3-c3ccnn3C)c(C#N)c2)c(OC)c1,inactive,inactive,inactive
C[C@H](CO)N1C[C@H](C)[C@H](CN(C)C(=O)c2ccc3c(c2)OCO3)Oc2ncc(C3=CCCC3)cc2C1=O,inactive,inactive,inactive
C[C@H](CO)N1C[C@H](C)[C@H](CN(C)C(=O)Nc2cccc3ccccc23)OCCCC[C@H](C)Oc2ccc(NS(=O)(=O)c3ccc(Cl)cc3)cc2C1=O,inactive,inactive,inactive
C[C@@H]1CCCCO[C@@H](CN(C)S(=O)(=O)c2ccccc2)[C@H](C)CN([C@H](C)CO)C(=O)c2cc(NC(=O)C3CCCCC3)ccc2O1,inactive,inactive,inactive
C[C@H](CO)N1C[C@H](C)[C@H](CN(C)S(C)(=O)=O)Oc2ccc(NS(C)(=O)=O)cc2CC1=O,inactive,inactive,inactive
O=C(C[C@H]1C[C@@H]2c3cc(NS(=O)(=O)c4ccc(F)cc4)ccc3O[C@@H]2[C@H](CO)O1)NCc1ccncc1,inactive,inactive,inactive
CO[C@@H]1CN(C)C(=O)c2ccc(NS(=O)(=O)c3cn(C)cn3)cc2OC[C@@H](C)N(Cc2cccc(F)c2)C[C@H]1C,inactive,inactive,inactive
C[C@@H]1CN([C@H](C)CO)S(=O)(=O)c2ccc(C#CC3CC3)cc2O[C@H]1CN(C)C(=O)Cc1ccncc1,inactive,inactive,inactive
COc1cccc(C#Cc2cnc3c(c2)C(=O)N([C@@H](C)CO)C[C@@H](C)[C@@H](CN(C)C(=O)C2CCC2)O3)c1,inactive,inactive,inactive
COc1ccc(C#Cc2ccc3c(c2)[C@]2(C(=O)N3)[C@H](C(N)=O)[C@H]3C(=O)O[C@H](c4ccccc4)[C@H](c4ccccc4)N3[C@@H]2c2ccccc2OCCO)cc1,active,active,inactive
CNC[C@H]1OCCCC[C@@H](C)Oc2ccc(NC(=O)Nc3ccc(C(F)(F)F)cc3)cc2C(=O)N([C@H](C)CO)C[C@@H]1C,inactive,inactive,inactive
C[C@@H]1CN([C@H](C)CO)C(=O)c2cc(/C=C/c3ccccc3)cnc2O[C@H]1CN(C)C(=O)Nc1ccc(C(F)(F)F)cc1,inactive,inactive,inactive
C[C@H](CO)N1C[C@H](C)[C@H](CN(C)S(C)(=O)=O)OCCCC[C@H](C)Oc2ccc(NS(=O)(=O)c3cccs3)cc2C1=O,inactive,inactive,inactive
C[C@@H]1[C@@H](c2ccccc2)OC(=O)[C@@H]2[C@H]3C(=O)N([C@@H](C)CO)[C@@H]4C(=O)N(Cc5ccccc5)CC=C[C@]34O[C@@H]2/C=C/CCC(=O)N1C,inactive,inactive,inactive
C[C@@H]1CCCCO[C@H](CN(C)Cc2ccc(C(F)(F)F)cc2)[C@H](C)CN([C@H](C)CO)C(=O)c2cc(NC(=O)NC3CCCCC3)ccc2O1,active,active,inactive
COc1ccc(NC(=O)N(C)C[C@H]2OCCCC[C@@H](C)Oc3ccc(NC(=O)Nc4ccc(F)cc4)cc3C(=O)N([C@H](C)CO)C[C@@H]2C)cc1,inactive,inactive,inactive
CC(C)NC(=O)N(C)C[C@@H]1Oc2ccc(NS(=O)(=O)c3ccccc3)cc2CC(=O)N([C@H](C)CO)C[C@@H]1C,inactive,inactive,inactive
C[C@H]1CCCCO[C@H](CN(C)S(=O)(=O)c2ccccc2)[C@@H](C)CN([C@@H](C)CO)C(=O)c2cc(NC(=O)Nc3ccc(C(F)(F)F)cc3)ccc2O1,inactive,active,inactive
COc1ccc(C#N)nc1,inactive,inactive,inactive
CC(C)NC(=O)Nc1ccc2c(c1)CC(=O)N([C@H](C)CO)C[C@@H](C)[C@@H](CN(C)S(=O)(=O)c1cn(C)cn1)O2,inactive,inactive,inactive
C[C@@H]1CN([C@H](C)CO)C(=O)c2cc(NC(=O)c3ccccc3)ccc2O[C@@H](C)CCCCO[C@H]1CN(C)S(=O)(=O)c1ccc(F)cc1,inactive,active,inactive
COc1ccc(S(=O)(=O)Nc2cccc3c2O[C@H](CN(C)C(=O)Nc2c(C)noc2C)[C@@H](C)CN([C@@H](C)CO)C3=O)cc1,inactive,inactive,inactive
Cc1ccc(S(=O)(=O)Nc2cccc3c2O[C@H](CN(C)Cc2ccc(-c4ccccc4)cc2)[C@@H](C)CN([C@@H](C)CO)C3=O)cc1,inactive,inactive,inactive
